In US20260207767A1 (ANAVEON, published 2026):

B1: EPK959 (other)
heavy: QVQLVESGGGVVQPGRSLRLSCAASGYTFSSYLIEWVRQAPGKGLEWVAVINPGSGGTNYADSVKGRFTISADKSKNTAYLQMNSLRAEDTAVYYCARWRGDGYYAYFDVWGQGTTVTVSSASTKGPSVFPLAPSSKSTSGGTAALGCLVKDYFPEPVTVSWNSGALTSGVHTFPAVLQSSGLYSLSSVVTVPSSSLGTQTYICNVNHKPSNTKVDKRV[not shown - human IgG1 Fc with changes]
light: EIVLTQSPATLSVSPGERATLSCRASQSVSYNFHLRPRDLISNINVIVLELKGSETTFMCEYADETATIVEFLNRWITFSQSIISTLTPTSSSTKKTQLQLEHLLLDLQMILNGINNYKNPKLTRMLTFKFYMPKKATELKHLQCLEEELKPLEEVLNLAQSKGDSYMNWYQQKPGQAPRLLIYAASNLASGIPARFSGSGSGTEFTLTISSLQSEDAAVYYCQQSNEDPYTFGGGTKVEIKRTVAAPSVFIFPPSDEQLKSGTASVVCLLNNFYPREAKVQWKVDNALQSGNSQESVTEQDSKDSTYSLSSTLTLSKADYEKHKVYACEVTHQGLSSPVTKSFNRGEC
notes: Antibody B IgG with IL-2CP in CDR-L1
B2: QTY065 (other)
heavy: EVQLVQSGAEVKKPGESLKISCKGSGYAFTNYLIEWVRQMPGKGLEWMGVINPGSGGTNYNEKFKGQVTISADKSISTAYLQWSSLKASDTAMYYCARWRGEGYYAYFDVWGQGTTVTVSSASTKGPSVFPLAPSSKSTSGGTAALGCLVKDYFPEPVTVSWNSGALTSGVHTFPAVLQSSGLYSLSSVVTVPSSSLGTQTYICNVNHKPSNTKVDKRV[not shown - human IgG1 Fc with changes]
light: AIRLTQSPSSFSASTGDRVTITCKASQSVDYGGGNFHLRPRDLISNINVIVLELKGSETTFMCEYADETATIVEFLNRWITFSQSIISTLTPTSSSTKKTQLQLEHLLLDLQMILNGINNYKNPKLTRMLTFKFYMPKKATELKHLQCLEEELKPLEEVLNLAQSKGGGGDSYMNWYQQKPGKAPKLLIYAASNLESGVPSRFSGSGSGTDFTLTISSLQSEDFATYYCQQSNEDPYTFGGGTKVEIKRTVAAPSVFIFPPSDEQLKSGTASVVCLLNNFYPREAKVQWKVDNALQSGNSQESVTEQDSKDSTYSLSSTLTLSKADYEKHKVYACEVTHQGLSSPVTKSFNRGEC
notes: also called Antibody A-IL-2 fusion protein; untargeted bivalent antibody-IL-2 fusion
B3: XUB802 (other)
heavy: EVQLVQSGAEVKKPGESLKISCKGSGYAFTNYLIEWVRQMPGKGLEWMGVINPGSGGTNYNEKFKGQVTISADKSISTAYLQWSSLKASDTAMYYCARWRGEGYYAYFDVWGQGTTVTVSSASTKGPSVFPLAPSSKSTSGGTAALGCLVKDYFPEPVTVSWNSGALTSGVHTFPAVLQSSGLYSLSSVVTVPSSSLGTQTYICNVNHKPSNTKVDKRV[not shown - human IgG1 Fc with changes]
light: AIRLTQSPSSFSASTGDRVTITCKASQSVDYGGGGSGGGGSGGGGSGGGGNFHLRPRDLISNINVIVLELKGSETTFMCEYADETATIVEFLNRWITFSQSIISTLTPTSSSTKKTQLQLEHLLLDLQMILNGINNYKNPKLTRMLTFKFYMPKKATELKHLQCLEEELKPLEEVLNLAQSKGGGGSGGGGSGGGGSGGGGSDSYMNWYQQKPGKAPKLLIYAASNLESGVPSRFSGSGSGTDFTLTISSLQSEDFATYYCQQSNEDPYTFGGGTKVEIKRTVAAPSVFIFPPSDEQLKSGTASVVCLLNNFYPREAKVQWKVDNALQSGNSQESVTEQDSKDSTYSLSSTLTLSKADYEKHKVYACEVTHQGLSSPVTKSFNRGEC
notes: Antibody A IgG with IL-2CP in CDR-L1
B4: DRV470 (other)
heavy: EVQLVQSGAEVKKPGESLKISCKGSGYAFTNYLIEWVRQMPGKGLEWMGVINPGSGGTNYNEKFKGQVTISADKSISTAYLQWSSLKASDTAMYYCARWRGEGYYAYFDVWGQGTTVTVSSASTKGPSVFPLAPSSKSTSGGTAALGCLVKDYFPEPVTVSWNSGALTSGVHTFPAVLQSSGLYSLSSVVTVPSSSLGTQTYICNVNHKPSNTKVDKRV[not shown - human IgG1 Fc with changes]
light: AIRLTQSPSSFSASTGDRVTITCKASQSVDYGGGGSGGGGSGGGNFHLRPRDLISNINVIVLELKGSETTFMCEYADETATIVEFLNRWITFSQSIISTLTPTSSSTKKTQLQLEHLLLDLQMILNGINNYKNPKLTRMLTFKFYMPKKATELKHLQCLEEELKPLEEVLNLAQSKGGGGSGGGGSGGGGDSYMNWYQQKPGKAPKLLIYAASNLESGVPSRFSGSGSGTDFTLTISSLQSEDFATYYCQQSNEDPYTFGGGTKVEIKRTVAAPSVFIFPPSDEQLKSGTASVVCLLNNFYPREAKVQWKVDNALQSGNSQESVTEQDSKDSTYSLSSTLTLSKADYEKHKVYACEVTHQGLSSPVTKSFNRGEC
notes: as for B3

Key:
[1] = target: T1, His-tagged recombinant CD25 (UniProt P01589 22-213, limits assumed); test: SPR, CD25 captured
T1 construct: also called IL-2R alpha chain
T1 sequence (looked up): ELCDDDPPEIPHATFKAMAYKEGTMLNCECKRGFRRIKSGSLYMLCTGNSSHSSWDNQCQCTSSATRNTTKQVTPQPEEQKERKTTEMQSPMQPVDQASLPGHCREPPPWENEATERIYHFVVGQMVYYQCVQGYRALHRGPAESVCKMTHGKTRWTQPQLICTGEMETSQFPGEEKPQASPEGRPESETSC

[2] = target: anti-IL-2 antibody clone 5344; test: ELISA on clone 5344
[3] = target: T2, trimeric IL-2 receptor (CD25/CD122/CD132) on HEK-Blue IL-2 reporter cells (UniProt P01589 22-272; P14784 27-551; P31785 23-369, limits assumed); test: cell-based or functional assay
T2 sequence (looked up) 1: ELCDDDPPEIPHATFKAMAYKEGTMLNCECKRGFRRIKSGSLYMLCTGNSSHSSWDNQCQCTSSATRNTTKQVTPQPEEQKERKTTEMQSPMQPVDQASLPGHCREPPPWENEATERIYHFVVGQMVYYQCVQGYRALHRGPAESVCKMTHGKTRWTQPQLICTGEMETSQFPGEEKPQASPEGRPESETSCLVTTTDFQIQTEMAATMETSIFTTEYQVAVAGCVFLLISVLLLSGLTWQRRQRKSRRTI
T2 sequence (looked up) 2: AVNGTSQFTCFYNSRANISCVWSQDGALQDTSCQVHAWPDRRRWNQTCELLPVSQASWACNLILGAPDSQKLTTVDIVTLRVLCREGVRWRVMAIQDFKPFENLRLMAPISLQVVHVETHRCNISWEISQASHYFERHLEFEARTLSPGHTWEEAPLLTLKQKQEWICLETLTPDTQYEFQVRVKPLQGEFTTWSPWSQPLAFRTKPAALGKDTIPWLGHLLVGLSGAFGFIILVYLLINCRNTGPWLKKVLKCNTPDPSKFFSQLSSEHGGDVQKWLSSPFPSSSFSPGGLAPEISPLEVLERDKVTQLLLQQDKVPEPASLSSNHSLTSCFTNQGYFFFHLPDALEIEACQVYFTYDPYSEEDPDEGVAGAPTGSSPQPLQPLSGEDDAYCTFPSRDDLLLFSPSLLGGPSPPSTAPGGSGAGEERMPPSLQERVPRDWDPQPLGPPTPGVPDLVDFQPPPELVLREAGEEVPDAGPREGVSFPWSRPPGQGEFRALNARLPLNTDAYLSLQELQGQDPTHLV
T2 sequence (looked up) 3: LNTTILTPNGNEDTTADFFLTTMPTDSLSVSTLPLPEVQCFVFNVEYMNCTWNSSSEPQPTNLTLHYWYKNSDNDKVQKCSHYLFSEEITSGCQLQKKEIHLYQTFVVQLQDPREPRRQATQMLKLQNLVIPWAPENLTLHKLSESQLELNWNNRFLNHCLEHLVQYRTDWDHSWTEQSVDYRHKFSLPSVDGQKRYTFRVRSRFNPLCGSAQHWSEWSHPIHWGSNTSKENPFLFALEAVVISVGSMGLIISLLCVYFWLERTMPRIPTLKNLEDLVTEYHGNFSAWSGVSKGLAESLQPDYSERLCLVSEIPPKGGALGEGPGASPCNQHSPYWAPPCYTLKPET

[4] = target: T3, IL-2R on NK cells and CD8+ T cells of murine splenocytes (C57BL/6) (mouse); test: cell-based or functional assay
[5] = target: T4, high affinity trimeric IL-2R on CD4+CD25+FoxP3+ Treg cells of murine splenocytes (mouse, UniProt P01590 22-268; P16297 27-539; P34902 23-369); test: cell-based or functional assay
T4 sequence (looked up) 1: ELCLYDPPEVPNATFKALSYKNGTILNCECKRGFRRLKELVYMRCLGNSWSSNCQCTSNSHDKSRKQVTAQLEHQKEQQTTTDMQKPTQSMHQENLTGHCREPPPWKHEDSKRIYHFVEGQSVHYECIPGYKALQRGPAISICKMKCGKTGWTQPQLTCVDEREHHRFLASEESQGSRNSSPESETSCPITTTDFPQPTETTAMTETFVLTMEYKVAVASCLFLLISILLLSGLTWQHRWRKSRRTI
T4 sequence (looked up) 2: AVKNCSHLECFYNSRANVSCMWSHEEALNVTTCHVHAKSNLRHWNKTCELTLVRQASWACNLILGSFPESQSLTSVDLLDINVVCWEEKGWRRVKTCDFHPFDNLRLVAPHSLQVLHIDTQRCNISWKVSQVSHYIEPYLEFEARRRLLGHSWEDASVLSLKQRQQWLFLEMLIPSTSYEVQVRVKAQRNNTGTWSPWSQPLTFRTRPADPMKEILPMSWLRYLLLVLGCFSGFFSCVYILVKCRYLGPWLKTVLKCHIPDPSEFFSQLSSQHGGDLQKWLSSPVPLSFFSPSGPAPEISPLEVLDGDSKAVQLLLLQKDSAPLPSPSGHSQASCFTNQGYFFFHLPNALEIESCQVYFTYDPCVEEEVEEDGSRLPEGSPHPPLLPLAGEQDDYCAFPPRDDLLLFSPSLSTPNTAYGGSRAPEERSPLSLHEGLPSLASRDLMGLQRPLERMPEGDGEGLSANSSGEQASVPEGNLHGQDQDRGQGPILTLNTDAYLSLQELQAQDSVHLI
T4 sequence (looked up) 3: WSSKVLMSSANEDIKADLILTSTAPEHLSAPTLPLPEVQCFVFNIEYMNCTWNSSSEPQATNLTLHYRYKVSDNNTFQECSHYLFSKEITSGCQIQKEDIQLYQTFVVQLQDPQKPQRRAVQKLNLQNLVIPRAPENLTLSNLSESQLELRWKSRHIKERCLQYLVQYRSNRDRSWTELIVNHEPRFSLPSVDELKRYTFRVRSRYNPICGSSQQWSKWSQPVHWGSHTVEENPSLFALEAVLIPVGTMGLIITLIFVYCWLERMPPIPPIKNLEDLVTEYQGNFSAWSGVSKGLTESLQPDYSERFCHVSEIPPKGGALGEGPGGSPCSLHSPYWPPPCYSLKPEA

[6] = target: T3, IL-2R on NK cells and CD8+ T cells of …; test: cell-based or functional assay; remark: listed apart in the source
[7] = target: T4, high affinity trimeric IL-2R on …; test: cell-based or functional assay; remark: listed apart in the source
[8] = target: T5, IL-2R CD122-CD132 on Jurkat-PD1+CD122+ cells (UniProt P14784 27-551; P31785 23-369); test: cell-based or functional assay
T5 sequence (looked up) 1: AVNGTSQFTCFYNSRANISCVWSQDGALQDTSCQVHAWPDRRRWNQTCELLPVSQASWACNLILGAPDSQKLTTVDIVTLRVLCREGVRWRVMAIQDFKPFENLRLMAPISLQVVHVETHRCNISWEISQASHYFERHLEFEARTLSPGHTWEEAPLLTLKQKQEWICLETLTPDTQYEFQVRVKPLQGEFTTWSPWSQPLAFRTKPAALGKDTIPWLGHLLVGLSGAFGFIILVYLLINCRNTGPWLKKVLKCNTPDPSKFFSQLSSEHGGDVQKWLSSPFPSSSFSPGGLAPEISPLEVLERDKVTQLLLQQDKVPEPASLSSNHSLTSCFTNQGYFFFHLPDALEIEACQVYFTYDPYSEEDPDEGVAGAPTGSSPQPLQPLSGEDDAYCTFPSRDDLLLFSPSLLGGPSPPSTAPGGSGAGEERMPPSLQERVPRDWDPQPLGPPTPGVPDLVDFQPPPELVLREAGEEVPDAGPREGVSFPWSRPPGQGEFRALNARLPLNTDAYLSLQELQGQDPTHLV
T5 sequence (looked up) 2: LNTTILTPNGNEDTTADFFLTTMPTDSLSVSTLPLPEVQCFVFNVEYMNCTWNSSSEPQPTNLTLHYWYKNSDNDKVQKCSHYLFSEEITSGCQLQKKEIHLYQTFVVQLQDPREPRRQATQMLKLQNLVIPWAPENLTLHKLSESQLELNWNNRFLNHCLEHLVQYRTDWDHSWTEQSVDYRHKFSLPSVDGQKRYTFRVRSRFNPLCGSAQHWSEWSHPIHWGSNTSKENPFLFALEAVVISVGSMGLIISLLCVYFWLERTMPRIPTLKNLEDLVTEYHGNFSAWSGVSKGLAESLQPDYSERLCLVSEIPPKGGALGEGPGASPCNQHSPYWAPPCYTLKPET

| Binder | binding result [1] | EC50 [2] [nM] | EC50, HEK Blue IL-2 reporter assay (SEAP) [3] [nM] | EC50 CD8 cells (nM), pSTAT5 [4] [nM] | EC50 NK cells (nM), pSTAT5 [4] [nM] | EC50 Treg cells (nM), pSTAT5 [5] [nM] | EC50 pSTAT5 on CD8 cells (nM) [6] [nM] | EC50 pSTAT5 on NK cells (nM) [6] [nM] | EC50 pSTAT5 on Treg cells (nM) [7] [nM] | EC50 value for pSTAT5 induction, Jurkat-PD-1+CD122+ cells [8] [nM] |
| --- | --- | --- | --- | --- | --- | --- | --- | --- | --- | --- |
| B1 | no binding (tested: 500 nM) | 0.15 | 0.00366 | 16 | 1.9 | 16 |  |  |  |  |
| B2 | no binding (tested: 500 nM) | 0.14 | 0.00322 | 4.6 | 1.2 | 5.91 | 17.9 | 2.88 | 4.21 | 1.07 |
| B3 | no binding (tested: 500 nM) | 0.15 | 0.00332 | 17.1 | 5.8 | 12.1 |  |  |  |  |
| B4 | no binding (tested: 500 nM) | 0.1 | 0.00361 | 7.9 | 2.4 | 10.3 |  |  |  |  |
